The text below walks through data of publication PMC5700166.

Only a part is listed here, and it is no random draw. The list includes weakly bound sequences.

Experiment in all cases: protein-binding microarray (PBM)
Conditions in all cases: PBM: ~300 nM protein, 6 mM HEPES pH 7.8, 80 mM KCl, 0.5 mM EDTA, 0.5 mM EGTA, 6% glycerol, 35 ng/ul poly-dIdC, 1% milk, 1 h, room temperature; Ap Aiptasia and Nv Nematostella (sea anemones) / Co Capsaspora / Aq Amphimedon (sponge) / Dm Drosophila / Hu human; RHD is the Rel homology domain; high values mean tight binding; most listed sequences are background and not binding sites; double strand, one strand shown

One experiment has as its target T1, GST-Ap-NF-kB RHD (UniProt A0A913YAJ5).
T1 sequence: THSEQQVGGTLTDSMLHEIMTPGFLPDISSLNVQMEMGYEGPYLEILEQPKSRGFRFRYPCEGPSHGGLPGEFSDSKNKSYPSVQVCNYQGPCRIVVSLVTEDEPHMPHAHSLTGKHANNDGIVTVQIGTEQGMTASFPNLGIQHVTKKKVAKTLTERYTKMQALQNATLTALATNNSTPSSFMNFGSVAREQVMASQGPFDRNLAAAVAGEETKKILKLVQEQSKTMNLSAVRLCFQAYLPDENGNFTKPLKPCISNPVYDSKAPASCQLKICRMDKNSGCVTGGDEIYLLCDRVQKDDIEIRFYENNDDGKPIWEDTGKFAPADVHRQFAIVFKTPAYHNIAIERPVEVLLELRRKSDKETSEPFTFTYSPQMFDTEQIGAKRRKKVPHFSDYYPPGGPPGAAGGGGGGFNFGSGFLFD

Experiment [1] deals with T2, GST-Nv-NF-kB (Cys allele) (UniProt E5G601).
T2 sequence: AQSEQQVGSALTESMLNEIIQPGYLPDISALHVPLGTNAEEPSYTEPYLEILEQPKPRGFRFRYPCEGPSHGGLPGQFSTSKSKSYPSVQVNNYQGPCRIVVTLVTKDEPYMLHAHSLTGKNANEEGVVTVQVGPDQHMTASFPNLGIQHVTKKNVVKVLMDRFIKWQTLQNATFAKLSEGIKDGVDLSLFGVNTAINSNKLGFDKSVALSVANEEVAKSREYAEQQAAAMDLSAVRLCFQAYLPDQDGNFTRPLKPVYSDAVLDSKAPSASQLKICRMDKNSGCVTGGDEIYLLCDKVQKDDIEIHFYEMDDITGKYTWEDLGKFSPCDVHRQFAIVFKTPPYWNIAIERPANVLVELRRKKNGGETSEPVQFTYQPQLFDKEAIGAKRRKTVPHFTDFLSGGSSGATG

For the next experiment, the target named is T3, GST-Co-NF-kB (UniProt F1ARL5).
T3 sequence: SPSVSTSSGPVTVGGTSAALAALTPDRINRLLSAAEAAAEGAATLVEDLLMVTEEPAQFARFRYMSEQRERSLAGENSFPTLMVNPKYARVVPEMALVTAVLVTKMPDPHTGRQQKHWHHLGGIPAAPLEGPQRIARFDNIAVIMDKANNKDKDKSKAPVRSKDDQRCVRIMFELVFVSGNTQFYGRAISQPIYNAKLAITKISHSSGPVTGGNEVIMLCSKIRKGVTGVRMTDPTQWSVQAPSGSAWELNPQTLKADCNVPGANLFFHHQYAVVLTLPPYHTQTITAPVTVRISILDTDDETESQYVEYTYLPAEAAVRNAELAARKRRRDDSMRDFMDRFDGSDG

The target of the next experiment is T4, GST-Dm-Relish (UniProt Q94527).
T4 sequence: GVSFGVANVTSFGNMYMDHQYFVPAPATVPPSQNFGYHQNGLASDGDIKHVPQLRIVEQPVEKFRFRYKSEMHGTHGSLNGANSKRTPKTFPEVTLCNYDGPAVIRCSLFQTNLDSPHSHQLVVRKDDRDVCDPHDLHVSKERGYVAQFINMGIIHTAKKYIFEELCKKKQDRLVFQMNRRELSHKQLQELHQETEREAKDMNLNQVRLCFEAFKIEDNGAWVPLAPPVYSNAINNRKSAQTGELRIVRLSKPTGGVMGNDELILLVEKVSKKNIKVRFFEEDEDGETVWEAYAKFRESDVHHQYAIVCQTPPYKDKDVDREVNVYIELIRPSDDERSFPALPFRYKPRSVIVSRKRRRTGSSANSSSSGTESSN

Another experiment addresses T5, GST-Aq-NF-kB (UniProt A9Y5G7).
T5 sequence: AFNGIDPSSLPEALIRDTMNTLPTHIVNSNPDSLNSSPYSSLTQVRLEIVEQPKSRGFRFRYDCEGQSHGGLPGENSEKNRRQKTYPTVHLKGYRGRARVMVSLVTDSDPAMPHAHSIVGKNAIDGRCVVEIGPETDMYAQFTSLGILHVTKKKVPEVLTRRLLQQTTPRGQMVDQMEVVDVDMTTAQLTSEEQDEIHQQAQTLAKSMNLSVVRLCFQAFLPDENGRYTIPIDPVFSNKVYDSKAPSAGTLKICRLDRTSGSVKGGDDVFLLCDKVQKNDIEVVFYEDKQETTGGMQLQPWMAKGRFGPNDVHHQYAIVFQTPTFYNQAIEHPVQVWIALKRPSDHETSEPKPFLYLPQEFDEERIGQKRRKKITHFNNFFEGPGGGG

Turning to “CCGATTAACATCAACTTTTATGCTGATGTTAATCGGGTCTTGATTCGCTTGACGCTGCTG”, the binding signal was -0.526 z-score with GST-Ap-NF-kB RHD; -0.083 z-score in experiment [1]; -0.304 z-score with GST-Co-NF-kB; -0.34 z-score with GST-Dm-Relish; -0.188 z-score with GST-Aq-NF-kB.
The like results for “CCGATTAACATCATGCTCACGCCTGATGTTAATCGGGTCTTGATTCGCTTGACGCTGCTG” were, in that order, -0.895 z-score, -1.06 z-score, -1.14 z-score, -0.76 z-score and -0.738 z-score.
Turning to “CCGATTAACATCAAGCATTATAATGATGTTAATCGGGTCTTGATTCGCTTGACGCTGCTG”, the binding signal with GST-Ap-NF-kB RHD was -0.455 z-score; in experiment [1] it was -0.865 z-score; with GST-Co-NF-kB, -0.911 z-score; in the experiment with GST-Dm-Relish it was -0.613 z-score; in the experiment with GST-Aq-NF-kB, -0.387 z-score.
In the case of “CCGATTAACATCACCCGTTAGCTTGATGTTAATCGGGTCTTGATTCGCTTGACGCTGCTG”, the binding signal in the experiment with GST-Ap-NF-kB RHD is 0.318 z-score; in experiment [1], -0.0506 z-score; in the experiment with GST-Co-NF-kB, 0.701 z-score; in the experiment with GST-Dm-Relish, 0.697 z-score; with GST-Aq-NF-kB, 0.45 z-score.
Regarding “CCGATTAACATCACGATAGCTATTGATGTTAATCGGGTCTTGATTCGCTTGACGCTGCTG”, the binding signal with GST-Ap-NF-kB RHD was -0.483 z-score; in experiment [1] it was -0.0464 z-score; with GST-Co-NF-kB, -0.217 z-score; in the experiment with GST-Dm-Relish, -0.757 z-score; with GST-Aq-NF-kB, -0.505 z-score.
The like results for “CCGATTAACATCAAGTTATTTCCTGATGTTAATCGGGTCTTGATTCGCTTGACGCTGCTG” were, in that order, -0.46 z-score, -0.521 z-score, 0.259 z-score, 0.88 z-score and 0.785 z-score.
The like results for “CCGATTAACATCAAAAGCTTAGTTGATGTTAATCGGGTCTTGATTCGCTTGACGCTGCTG” were, in that order, -0.527 z-score, -0.839 z-score, -0.707 z-score, -0.688 z-score and -0.501 z-score.
Consider “CCGATTAACATCATCAAGTTGGGTGATGTTAATCGGGTCTTGATTCGCTTGACGCTGCTG”, for which the binding signal with GST-Ap-NF-kB RHD is 0.282 z-score; in experiment [1], 0.113 z-score; with GST-Co-NF-kB, 0.307 z-score; with GST-Dm-Relish, -0.0724 z-score; with GST-Aq-NF-kB, 0.263 z-score.
The like results for “CCGATTAACATCACGTATCAAATTGATGTTAATCGGGTCTTGATTCGCTTGACGCTGCTG” were, in that order, -0.394 z-score, 0.17 z-score, 0.163 z-score, -0.167 z-score and -0.309 z-score.
The like results for “CCGATTAACATCAGTCTACAACCTGATGTTAATCGGGTCTTGATTCGCTTGACGCTGCTG” were, in that order, -0.429 z-score, -1.2 z-score, -1.33 z-score, -0.386 z-score and -0.635 z-score.
For the sequence “CCGATTAACATCAGCACAGACTTTGATGTTAATCGGGTCTTGATTCGCTTGACGCTGCTG”, the binding signal in the experiment with GST-Ap-NF-kB RHD is -0.344 z-score; in experiment [1], -0.362 z-score; with GST-Co-NF-kB, -0.393 z-score; with GST-Dm-Relish it was -0.831 z-score; in the experiment with GST-Aq-NF-kB, -0.626 z-score.
Regarding “CCGATTAACATCACTAAAGTGTGTGATGTTAATCGGGTCTTGATTCGCTTGACGCTGCTG”, the binding signal is -0.127 z-score in the experiment with GST-Ap-NF-kB RHD; 0.289 z-score in experiment [1]; -0.0283 z-score with GST-Co-NF-kB; 0.571 z-score with GST-Dm-Relish; -0.445 z-score with GST-Aq-NF-kB.
For “CCGATTAACATCAAAATTCCGTATGATGTTAATCGGGTCTTGATTCGCTTGACGCTGCTG”, the binding signal is -0.399 z-score with GST-Ap-NF-kB RHD; -0.322 z-score in experiment [1]; 0.454 z-score in the experiment with GST-Co-NF-kB; 0.384 z-score with GST-Dm-Relish; 0.959 z-score with GST-Aq-NF-kB.
The like results for “CCGATTAACATCACGGAAACTACTGATGTTAATCGGGTCTTGATTCGCTTGACGCTGCTG” were, in that order, 0.219 z-score, 0.805 z-score, 0.887 z-score, 1.84 z-score and 1.46 z-score.
